Z-score data for 73 compounds are collected here from PubChem BioAssay AID488969 (Vanderbilt High Throughput Screening Facility, 2010).

Over roughly 110,000 compounds, “z-score” has its median near -0.1; the highest 2% begin near 2. This is one part of the list.

The target in the assay is Metabotropic glutamate receptor 8 (Rattus norvegicus) (UniProt P70579). In words: mGluR8 Gi/Go-coupled signaling modulation – cell-based, rat, thallium flux, HTS, primary screen (AID 488969). To be noted: HEK293 rat mGluR8, GIRK (G protein-gated inwardly rectifying potassium channel) thallium flux, FluoZin2; at 10 µM; stronger effect = higher value; submaximal glutamate (EC20) added with thallium.
Sequence of UniProt P70579 (P70579 whole entry, looked up): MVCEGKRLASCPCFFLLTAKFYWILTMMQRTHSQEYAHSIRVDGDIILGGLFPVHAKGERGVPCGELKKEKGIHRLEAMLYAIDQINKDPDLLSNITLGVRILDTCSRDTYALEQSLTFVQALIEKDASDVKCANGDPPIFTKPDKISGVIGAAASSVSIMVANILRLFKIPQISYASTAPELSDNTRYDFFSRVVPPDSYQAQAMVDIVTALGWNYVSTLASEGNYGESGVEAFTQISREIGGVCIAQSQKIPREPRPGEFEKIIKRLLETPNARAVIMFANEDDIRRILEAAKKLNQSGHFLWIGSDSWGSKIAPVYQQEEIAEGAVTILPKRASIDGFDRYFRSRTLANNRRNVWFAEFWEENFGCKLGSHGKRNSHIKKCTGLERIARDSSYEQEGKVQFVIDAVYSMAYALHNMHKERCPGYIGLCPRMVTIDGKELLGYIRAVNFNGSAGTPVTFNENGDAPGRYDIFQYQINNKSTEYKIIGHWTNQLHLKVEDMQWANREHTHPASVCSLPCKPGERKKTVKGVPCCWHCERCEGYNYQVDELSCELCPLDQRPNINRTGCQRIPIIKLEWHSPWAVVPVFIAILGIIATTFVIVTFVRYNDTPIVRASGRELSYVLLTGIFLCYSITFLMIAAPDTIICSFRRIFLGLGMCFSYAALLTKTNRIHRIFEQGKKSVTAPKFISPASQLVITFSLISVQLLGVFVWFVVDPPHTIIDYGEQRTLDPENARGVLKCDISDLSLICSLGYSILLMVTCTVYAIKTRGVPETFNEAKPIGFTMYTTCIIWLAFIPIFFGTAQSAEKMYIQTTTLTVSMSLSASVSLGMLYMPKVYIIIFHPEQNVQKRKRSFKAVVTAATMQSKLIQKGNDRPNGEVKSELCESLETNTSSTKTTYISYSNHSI
The compound `COC(=O)c1c(NC(=O)C2c3ccccc3Oc3ccccc32)sc(C)c1C` showed a z-score of 0.174.
The same measure for `COc1ccc(CC(=O)N2CCN(c3ccccn3)CC2)cc1`: -0.104; for `Cc1ccc2c(c1)Sc1ccccc1CC2=O`: -0.161.
The same measure for `COc1cc(S(=O)(=O)NCC2CCCO2)c(OC)cc1Cl` (stereo not drawn): 0.819.
The same measure for `CC1Cc2ccccc2N1CC(=O)NC(=O)NCc1ccco1` (stereo not drawn): 0.085; for `Cc1ccc(NC2=C([N+](=O)[O-])CS(=O)(=O)C2)cc1`: -0.072.
Regarding `O=c1cccc(-c2ccccc2)[nH]1`, the z-score was -0.0125.
The same measure for `CCOc1ccc(C(=O)NCc2ccccc2OC)cc1`: -0.206.
`CCc1ccccc1NS(=O)(=O)c1cc(C)ccc1OC`: the z-score was -0.946.
The compound `COc1ccccc1N(CC(=O)NC1CCCCC1)C(=O)c1csnn1` displayed a z-score of 0.73.
Next, `O=c1oc2c3c4c(cc2s1)CCCN4CCC3`: -0.281; `COc1ccccc1C(=O)NCC(c1cccnc1)N(C)C` (stereo not drawn): 0.448; `COc1ccc(/C=C2\CCn3c2nc2cc(C(=O)O)ccc2c3=O)cc1O`: -0.197.
In the case of `CCc1ccccc1OCc1nc2ccc(S(=O)(=O)N3CCOCC3)cc2[nH]1`, the z-score was -0.658.
The same measure for `COCCCn1c(C)nc2c(c1=O)c1nc3ccccc3nc1n2CCc1ccccc1`: -1.08; for `Cc1cccc(NC(=O)c2cccnc2)c1`: -0.135; for `CC(=O)Nc1ccccc1Nc1cc(C#N)c(C#N)cc1[N+](=O)[O-]`: -0.00232.
For `CCc1nc(SCC(=O)NCc2ccc(F)cc2)c2c(=O)n(C)c(=O)n(C)c2n1`, the z-score came to 0.254.
Regarding `COc1ccc2nc(N3C(=O)CC(Cc4ccc(Cl)cc4)C3=O)sc2c1` (stereo not drawn), the z-score was -0.21.
The same measure for `O=C(/C=C/c1ccc(F)cc1)Nc1cc(S(=O)(=O)N2CCOCC2)ccc1N1CCCC1`: -0.192; for `CCCCC(=O)Nc1cccc(NC(=O)C(C)C)c1`: -0.297.
The same measure for `CCCCNC(=O)CNC(=S)N(Cc1ccccc1)Cc1cccnc1`: -0.224; for `COc1ccccc1/C=C/C1=NC(=C\N(C)C)/C(=O)O1`: -0.339.
Next, `Cc1cc(N2CCOCC2)nc(SCc2c(Cl)cccc2Cl)n1`: -0.0363; `CCC(=O)Nc1ccc(Cl)c(NC(=O)C(C)C)c1`: 0.418; `CCOc1ccc(S(=O)(=O)N(CCO)CCO)cc1-c1nc2c(C(C)(C)C)nn(C)c2c(=O)[nH]1`: -0.717.
`O=C1C(C=Nc2ccccc2)=C(O)c2ccccc21` showed a z-score of 0.275.
The same measure for `COc1ccccc1-c1nnc(SCC(=O)N2CCC(C)CC2)o1`: 0.803.
The compound `CCc1ccc(OCC(=O)NC(NC(=S)Nc2ccc(C)cc2C)C(Cl)(Cl)Cl)cc1` (stereo not drawn) returned a z-score of 0.136.
Next, `Cc1cccc(NC(=S)NC2CC3CCCC(C2)N3CC(C)C)c1` (stereo not drawn): 0.663; `Nc1ccc(C(=O)Nc2nc3ccccc3s2)cc1`: -0.363.
Consider `Cc1ccc(-c2oc3ncnc(N)c3c2-c2ccc(C)cc2)cc1`, for which the z-score was -0.0208.
The same measure for `Cc1cc(NC(=O)CSc2ncccn2)no1`: 0.325; for `COc1ccc(Cl)c(NC(=O)Nc2c(C)n(-c3ccccc3)c(=O)n2C)c1`: 1.18; for `CC(C)COc1ccc(C(=O)N/C(=C\c2cccc([N+](=O)[O-])c2)C(=O)OC(C)C)cc1`: -0.33.
On to `Nc1c(NC(=O)CC[n+]2ccccc2)cccc1[N+](=O)[O-]`, for which the z-score was -0.292.
The same measure for `CNc1nc(SCc2ccccc2)nc(N2CCOCC2)n1`: -0.587.
The same measure for `S=c1[nH]nc(Cc2sc(-c3ccccc3)nc2-c2ccccc2)o1`: 0.186.
In the case of `COc1cc(OC)cc(C(=O)N(CN2CCCC2=O)c2ccccc2OC)c1`, the z-score is -0.105.
The same measure for `CCOC(=O)c1c(-c2ccccc2)csc1NC(=S)N(CC)CC`: 0.121; for `O=C(Nc1cccnc1)Nc1ccc(F)c(Cl)c1`: 0.00894.
The same measure for `CCOc1ccc(N2C(N)=NC(N)=NC2(C)C)cc1`: -0.0608.
As for `CCc1ccc(N(C(=O)CNC(=O)c2cccs2)C(C(=O)NC(C)(C)C)c2cc(OC)c(OC)c(OC)c2)cc1` (stereo not drawn), the z-score is -0.29.
For the compound `C[N+]1(CC(O)COc2ccccc2)CCN(C(=O)c2ccc([N+](=O)[O-])cc2)CC1` (stereo not drawn), the z-score is -0.448.
The same measure for `COc1cc(/C=N/NC(=O)C(C)n2nnc3ccccc32)ccc1O` (stereo not drawn): -0.414; for `COC(=O)c1cccc(N2C(=O)C3CC=CCC3C2=O)c1` (stereo not drawn): 0.154.
Compound `Cc1ccc(-n2c(-c3cccnc3)n[nH]c2=S)c(C)c1` returned a z-score of -0.0849.
Next, `COc1ccc(NC(=O)c2ocnc2C)cc1OC`: -0.369; `CCOC(=O)N1CCN(C(=S)Nc2cc(OC)c(OC)cc2C(=O)OC)CC1`: -0.261; `O=C(CN1CCc2ccccc2C1)Nc1cc(S(=O)(=O)N2CCOCC2)ccc1N1CCOCC1`: -1.04.
The same measure for `Cc1cccc(OCCCC(=O)Nc2ccc(N(C)C)cc2)c1`: -0.175.
Next, `O=C(NC1CCCCC1)NC1CC2CCC(C1)N2C(=O)NC1CCCCC1` (stereo not drawn): 0.494; `CCNc1ccc(Br)cc(C(=O)/C=C/c2ccc(Cl)cc2Cl)c1=O`: 0.0685; `CC(OC(=O)c1ccc(S(=O)(=O)NCc2ccco2)cc1)C(=O)Nc1ncc(Cl)cc1Cl` (stereo not drawn): -0.205.
Turning to `Cn1c(C(=O)OC(C(=O)NC2CCCC2)c2ccncc2)cc2sccc21` (stereo not drawn), the z-score is -0.512.
The same measure for `CCC(C)NS(=O)(=O)c1ccc(OCC(=O)Nc2ccc3c(c2)OCCO3)cc1` (stereo not drawn): -0.437.
The same measure for `O=C(NCc1cccc(Cl)c1)c1cccnc1`: -0.0529; for `Cn1ccs/c1=N\S(=O)(=O)c1ccc(C(C)(C)C)cc1`: 0.371.
Next, `Cc1nn(-c2ccccc2)c(C)c1NS(=O)(=O)c1ccccc1`: 0.244.
Compound `CC1(C)CC(C(CC(=O)Nc2nccs2)c2ccccc2)CCO1` (stereo not drawn) displayed a z-score of -0.0568.
The same measure for `CCOc1ccc(Cc2n[nH]c(=S)n2N)cc1`: -0.213; for `c1ccc(N2CCN(c3c4c(nc5ncnn35)CCC4)CC2)cc1`: -0.139; for `Cc1ccc(C(NC(=O)N2CCOCC2)C(Cl)(Cl)Cl)cc1F` (stereo not drawn): -0.0287.
The same measure for `CC(=O)Nc1nnc(SCC(=O)N2CCN(Cc3ccccc3)CC2)s1`: -0.0425; for `O=c1cc(O)n(-c2ccccc2)c(=S)[nH]1`: -0.0388.
Take `Cc1cc(-c2nn3c(C)nnc3s2)ccc1NC(=O)C(C)(C)C`: the z-score is 0.038.
On to `CCOC(=O)C1CCCN(C(=O)/C=C/c2ccccc2[N+](=O)[O-])C1` (stereo not drawn), for which the z-score was -0.101.
Next, `Cc1ccc(NC(=O)C2COc3ccccc3O2)nc1` (stereo not drawn): 0.189; `CC1CCCCC1NC(=O)c1nn(C)c(=O)c2ccccc12` (stereo not drawn): -0.289; `O=C(CCCOc1ccc(Cl)cc1Cl)Nc1cccnc1`: -0.0915.
The same measure for `Cn1nc(-c2ccc(N3CCCCC3)c(NC(=O)c3ccco3)c2)c2ccccc2c1=O`: -1.88; for `Cc1ccc(-c2noc(COc3ccc4c(c3)OCO4)n2)cc1`: -0.183.
In turn, `Cc1nn(-c2ccc(F)cc2)c(Cl)c1/C=C/C(=O)OCC(=O)Nc1ccc(F)cc1F` registered a z-score of -0.164.
